Measurements: PubChem BioAssay AID686971 (National Center for Advancing Translational Sciences (NCATS), 2013)
The campaign covered roughly 360,000 compounds. About 7,500 (2.1%) were called active. The shares of active, inactive and inconclusive entries below differ from those in the screen. The call rests on the fitted dose curve; in most records, active means well fitted cell-killing curve with a large enough effect; inconclusive means small, poorly fitted or top-dose-only effect, or effect the other way, or another doubt; inactive means no such curve, though single readings can be large or run the other way. Potencies of inconclusive entries are left out as doubtful fits.

Assay: qHTS for induction of synthetic lethality in tumor cells producing 2HG: qHTS for the HT-1080-IDH1KD cell line;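 on activity, negative = toxicity: 0% = DMSO wells and -100% = cell-free medium wells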
Settings: HT-1080 IDH1 knockdown viability, ATP luminescence, 48 h; activity, negative = toxicity: at 46.1 µM (top of the series) unless noted
Outline: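 Using the IDH1-knockdown HT-1080 line run in the same batch and compound series as the NT line, viability after 48 h at 37 °C was determined by CellTiter-Glo luminescence and expressed as % activity.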
Potency means the concentration at half of the fitted maximal effect; tags describe the fitted curve by direction and shape.

Structure (SMILES) | activity, negative = toxicity | Potency
O=C(NCc1ccc(F)cc1)c1ccccc1OCc1ccccc1 | inconclusive: 3.55% | 
CCCCCc1c2c(cc(O)c1C(=O)O)OC(=O)c1c(cc(OC)cc1C(=O)CCCC)O2 |  | inconclusive [cytotoxic, single point]
CC(Nc1nc(-c2ccc(F)cc2)cs1)c1nc2cc(Cl)c(N3CCCCC3)cc2n1CCOCCO (configuration not stated) |  | inconclusive [cytotoxic, single point]
CCCOC(=O)Nc1sc2c(c1C(N)=O)CCCC2 |  | inconclusive [cytotoxic, single point]
Cc1cnc(C(=O)OCc2csc(CC(=O)Nc3ccccc3C)n2)cn1 | inactive: -2.3% | 
Cc1ccc(CNS(=O)(=O)c2cc3c(cc2C)NC(=O)CO3)cc1 | inactive: -8.07% | 
COc1ccc([C@H]2CC(=O)C=C(c3ccc4c5c(cccc35)CC4)C2)cc1 | inactive: -23% | 
O=C(NCCN1CCOCC1)c1ccc(Cl)c(S(=O)(=O)N2CCCCC2)c1 | inactive: -0.438% | 
CC(Oc1ccc(Br)cc1Cl)C(=O)Nc1ccncc1 (configuration not stated) |  | active: 16.4 µM
CCOc1ccc(C(=O)Nc2cccc(C(=O)O)c2)cc1Cl | inactive: 18.8% | 
C[C@@]12C(=O)N(Cc3ccccc3)CC(=O)N1[C@H]1c3cc(Cl)ccc3OC[C@@H]1[C@@H]2c1ccccc1 | inactive: -4.91% | 
COc1ccc(C2=Nn3c(nnc3-c3ccccc3OC)SC2)cc1OC |  | inconclusive [cytotoxic, full curve]
Cc1ccccc1-c1nnn(CC(=O)Nc2cccc(S(N)(=O)=O)c2)n1 | inactive: 5.46% | 
CCN(CC)c1ccc(NC(=O)CSc2nc(C3CC3)nc3ccccc23)cc1C |  | active: 6.51 µM
Cc1cccc(NC(=O)c2cc(-c3cc(C)cc(C)c3O)n[nH]2)c1 |  | inconclusive [cytotoxic, single point]
CC=CCn1c(SCCCc2ccccc2)nc2c1c(=O)[nH]c(=O)n2C |  | inconclusive [cytotoxic, single point]
COc1ccc(-c2[nH]ncc2CN2CCN(C(=O)c3ccco3)CC2)cc1F | inactive: 4.03% | 
O=C(CCl)N1c2ccccc2Sc2ccc3ccccc3c21 |  | inconclusive [cytotoxic, single point]
COc1cccc2sc(NC(=O)c3ccc(Br)s3)nc12 |  | inconclusive [cytotoxic, single point]
Cc1nn2c(c1-c1ccc(Cl)cc1)N=C(c1ccco1)CC2c1ccccc1 (configuration not stated) |  | inconclusive [cytotoxic, single point]
COc1cccc(-n2nnc3c(=O)n(Cc4ccccc4Cl)cnc32)c1 | inactive: 18.8% | 
COc1ccc([C@H]2Oc3cc(O)cc(O)c3C(=O)C2[C@@H]2C(=O)c3c(O)cc(O)cc3O[C@@H]2c2ccc(OC)cc2)cc1 (some centres not stated) |  | inconclusive [cytotoxic, single point]
Cc1cc(NC(=O)c2coc(=O)c(Br)c2)ccc1C(C)C |  | active: 20.6 µM
CCCCNc1ccc(C(F)(F)F)cc1S(=O)(=O)NCCc1ccc(F)cc1 |  | inconclusive [cytotoxic, single point]

Structure (SMILES) | activity, negative = toxicity | Potency
O=c1[nH]c(-c2ccncc2)nc2ccccc12 | inactive: -8.26% | 
CCC(c1nnnn1Cc1ccccc1)N1CCN(C/C=C/c2ccccc2)CC1 (configuration not stated) |  | inconclusive [cytotoxic, single point]
CC(C)OC(=O)c1ccc(COC(=O)c2cccc(-c3nnc(-c4ccccc4)o3)c2)cc1 | inactive: 16.1% | 
Nc1ccc(-n2nnnc2CN2CCOCC2)cc1 |  | inconclusive [rising, partial curve, poor fit]
Cc1ccc2c(c1)N=C(c1ccccc1)CC(C(Cl)Cl)=N2 |  | inconclusive [cytotoxic, single point]
CC1=C(C#N)C(c2cn(-c3ccccc3)nc2-c2cccs2)C(C#N)=C(C)N1 |  | inconclusive [cytotoxic, single point]
COc1ccc(Cl)cc1-c1cc(C(=O)NC2CCCCC2)[nH]n1 |  | inconclusive [cytotoxic, single point]
CCOc1cc(NC(=S)NCCc2ccccc2)c(OCC)cc1NC(C)=O | inactive: -15.1% | 
CCOC(=O)/C(=N\Nc1ccccc1[N+](=O)[O-])c1csc(Nc2ccccc2)n1 |  | inconclusive [cytotoxic, single point]
COCCSc1ccccc1C(=O)Nc1cc([N+](=O)[O-])ccc1OC | inactive: -2.78% | 
CCNC(=O)C1(C)CCCN(Cc2csc(-c3ccc(Cl)cc3)n2)C1 (configuration not stated) |  | inconclusive [cytotoxic, full curve]
CCOC(=O)c1c(C)[nH]c(C)c1S(=O)(=O)NCc1ccccc1OCC | inactive: 1.1% | 
CN(C)S(=O)(=O)c1ccc2[nH]cc(/C=C/c3nc4ccccc4c(=O)n3-c3ccccc3)c2c1 |  | inconclusive [cytotoxic, partial curve]
Fc1ccc(CN2CCCN(Cc3nc(-c4ccc5c(c4)OCO5)no3)CC2)cc1 | inactive: 3.31% | 
CC(C)CCn1c(CN2CCN(C(=O)c3ccco3)CC2)nc2c1c(=O)n(C)c(=O)n2C | inactive: -0.815% | 
N#Cc1ccc(CN2CCN(C(=O)CN3C(=O)NC4(CCCC4)C3=O)CC2)cc1 |  | inconclusive [cytotoxic, single point]
CCOc1ccc(NS(=O)(=O)c2ccc3[nH]c(=O)c(=O)[nH]c3c2)cc1 |  | inconclusive [rising, partial curve]
Cc1ccc(-c2noc(CSc3nnc(Cc4ccccc4)n3-c3cccc(C)c3)n2)cc1 |  | inconclusive [cytotoxic, single point]
Clc1ccc(-n2nnnc2-c2ccccc2)cc1Cl |  | inconclusive [cytotoxic, single point]
Cc1c2ccncc2cc2c1[nH]c1ccccc12 |  | active: 13 µM
CCOC(=O)c1sc(NC(=O)c2cccs2)cc1C |  | inconclusive [cytotoxic, partial curve, poor fit]
Cc1cc(N2CCN(C(C(=O)NC3CCCC3)C(C)C)CC2)c2ccccc2n1 (configuration not stated) | inactive: -0.534% | 
CC1CCCCN1S(=O)(=O)c1ccc(NC(=O)CSc2nnnn2C)cc1 (configuration not stated) | inconclusive: -2.1% | 
